Among all 310,000 compounds or so, about 14,000 (4.5%) showed an effect of 50% or more. The effect is printed as a negative number. The list shows a part of the results.
Biological target: human ether-à-go-go-related gene (hERG) potassium channel (human, UniProt Q12809)
Test: primary screen, population patch clamp on CHO cells stably expressing hERG
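Note: peak tail current of the secondary pulse compared with the same well before compound.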

Chain of human ether-à-go-go-related gene (hERG) potassium channel (Q12809 whole entry, looked up): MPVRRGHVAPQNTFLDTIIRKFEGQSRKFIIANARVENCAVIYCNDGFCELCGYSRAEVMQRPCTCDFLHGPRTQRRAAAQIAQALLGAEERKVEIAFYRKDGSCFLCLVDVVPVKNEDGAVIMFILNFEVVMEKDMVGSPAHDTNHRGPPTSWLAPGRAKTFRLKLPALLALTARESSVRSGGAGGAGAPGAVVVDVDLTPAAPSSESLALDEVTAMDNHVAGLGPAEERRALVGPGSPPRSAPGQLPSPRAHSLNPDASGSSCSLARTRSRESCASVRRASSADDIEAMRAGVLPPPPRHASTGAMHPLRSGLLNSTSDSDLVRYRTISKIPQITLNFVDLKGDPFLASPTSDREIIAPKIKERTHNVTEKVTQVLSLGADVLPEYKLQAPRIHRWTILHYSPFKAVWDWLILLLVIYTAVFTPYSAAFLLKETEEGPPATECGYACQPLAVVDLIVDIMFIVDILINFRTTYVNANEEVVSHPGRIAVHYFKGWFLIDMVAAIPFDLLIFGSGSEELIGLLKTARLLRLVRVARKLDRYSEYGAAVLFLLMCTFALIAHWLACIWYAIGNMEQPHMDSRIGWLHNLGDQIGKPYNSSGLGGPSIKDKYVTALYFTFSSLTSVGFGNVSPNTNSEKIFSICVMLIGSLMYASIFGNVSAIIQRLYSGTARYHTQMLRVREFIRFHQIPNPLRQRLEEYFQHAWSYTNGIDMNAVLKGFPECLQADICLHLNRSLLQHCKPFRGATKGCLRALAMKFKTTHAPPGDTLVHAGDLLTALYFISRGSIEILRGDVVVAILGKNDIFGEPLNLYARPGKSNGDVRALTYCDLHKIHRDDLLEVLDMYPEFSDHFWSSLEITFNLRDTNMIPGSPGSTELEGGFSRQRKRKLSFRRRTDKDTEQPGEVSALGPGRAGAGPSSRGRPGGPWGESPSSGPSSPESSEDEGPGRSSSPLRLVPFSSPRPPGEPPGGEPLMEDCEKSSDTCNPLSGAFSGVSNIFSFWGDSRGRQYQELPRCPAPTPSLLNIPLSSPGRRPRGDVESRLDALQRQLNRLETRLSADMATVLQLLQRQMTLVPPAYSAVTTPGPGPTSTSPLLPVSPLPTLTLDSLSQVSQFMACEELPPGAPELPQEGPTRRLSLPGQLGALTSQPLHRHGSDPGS

| SMILES | hERG current change (%, negative = inhibition) at 10uM |
| --- | --- |
| CCOc1ccccc1NC(=O)CN(c1ccc(C)cc1)S(=O)(=O)c1c(C)n[nH]c1C | 6.72% |
| CN(C)CCN(C(=O)CCc1ccccc1)c1nc2c(F)cc(F)cc2s1.Cl | -33.4% |
| CC1(C(=O)N(CC(=O)NC2CCCC2)C2CCCC2)CC(=O)N=C2C=CC=CN21 (centres unmarked) | 22.5% |
| O=c1c2ccccc2ncn1-c1cccc(Cl)c1 | 3.93% |
| Cc1cc(S(=O)(=O)N2CCOCC2)ccc1OCC(=O)Nc1ccc(Br)cc1F | 12.7% |
| CCCCn1c(SCC(N)=O)nc2c(sc3ccccc32)c1=O | -12.4% |
| CC(=O)NC(CC(=O)NC(C)c1ccc(Cl)cc1Cl)c1ccccc1 (centres unmarked) | -11.6% |
| CCc1ccc(OCC(=O)Nc2cccc3c2CCCC3)cc1 | 6.68% |
| CCOC(=O)CNC(=O)C(=O)c1c(O)[nH]c2ccccc12 | 9.92% |
| CCOC(=O)c1c(C)[nH]c(=S)c(C#N)c1-c1ccc(OC)cc1 | 12.5% |
| Cc1ccc(NC(=O)CCCc2ccccc2)c([N+](=O)[O-])c1 | 9.84% |
| Cc1cc(N2CCOCC2)ncc1[N+](=O)[O-] | -4.31% |
| CC(=O)NS(=O)(=O)c1ccc(NC(=O)CC(C)c2ccccc2)cc1 (centres unmarked) | 11.8% |
| Cc1cc(Nc2ccccc2)c2c([N+](=O)[O-])c(C)cc(C)c2n1 | -5.28% |
| COc1ccc(NC(=O)Cc2ccccc2F)cc1S(=O)(=O)N1CCCCC1 | -0.328% |
| Nc1ccccc1SCc1cn2cccnc2n1 | -11.3% |
| CCN(CC)CCNc1nc(-c2ccccc2)c2c(c1C#N)CC(C)(C)OC2 | -66.4% |
| Cc1cc(=O)n2[nH]c(=O)c(N=Nc3ccccc3)c2[nH]1 | 12.9% |
| COc1cc(OC)c(OC)cc1/C=N/Nc1ncnc2c1[nH]c1ccccc12 | -10.7% |
| Cc1cccc(NC(=O)[C@@H](NC(=O)[C@@H]2Cc3ccccc3CN2)C(C)C)c1 | -62.4% |
| CCOc1cc(CNCC2CCCO2)cc(Br)c1OCC(N)=O.Cl (centres unmarked) | -3.59% |
| COc1ccc(CNC(=O)CCC(=O)N2CC(C)Oc3ccccc32)cc1 (centres unmarked) | -25.4% |

| SMILES | hERG current change (%, negative = inhibition) at 10uM |
| --- | --- |
| CC(=O)Nc1ccc(S(=O)(=O)N2CCCC(C(=O)N3CCN(c4ccccc4)CC3)C2)cc1 (centres unmarked) | -50.9% |
| COc1ccc(N2CCN(CC(O)COc3c(OC)cccc3OC)CC2)cc1.Cl (centres unmarked) | -35.3% |
| O=C(CCSc1ccc(Cl)cc1)NC12CC3CC(CC(C3)C1)C2 | 26% |
| COc1cccc(OC)c1C(=O)Nc1cccnc1 | -5.88% |
| CCN(CC)S(=O)(=O)c1ccc(C)c(NC(=O)Cn2cnc3cc([N+](=O)[O-])ccc3c2=O)c1 | -55.7% |
| COCCN1C(=O)N[C@@H](c2cccc(C(F)(F)F)c2)C(C(=O)OC)=C1C | 12.7% |
| Cc1c(C#N)c(=O)oc2ccc3ccccc3c12 | 9.93% |
| Cc1csc(NC(=O)c2ccco2)c1C(=O)c1ccccc1 | 10.2% |
| C#CCOc1ccc(Br)cc1/C=N/O | 0.729% |
| COc1cc(-c2nnc(Sc3ccc(C(F)(F)F)cc3[N+](=O)[O-])o2)cc(OC)c1OC | 3.03% |
| O=C(COc1cccnc1[N+](=O)[O-])Nc1ccc2c(c1)OC(F)(F)O2 | -11.2% |
| Cc1ccc(S(=O)(=O)N2CCCCC2)cc1NC(=O)CSc1nccn1C | -9.3% |
| CCOC(=O)C1CCN(C(=O)CNC(=O)OC(C)(C)C)CC1 | 5.68% |
| COc1ccc(S(=O)(=O)N2CCc3ccccc32)cc1C(=O)N1CCN(C=O)CC1 | -2.51% |
| O=c1c2cc(Br)ccc2[nH]c(=S)n1Cc1ccccc1 | 17.8% |
| COc1ccc(OC)c(N(CC(=O)N2CCCCC2)S(=O)(=O)c2ccc(OC)c(OC)c2)c1 | 10.6% |
| CC(C)(C)c1cc2cccnc2n1Cc1ccccc1 | -13.2% |
| C/C(CC(=O)NCc1ccco1)=N\NC(=O)Cc1cccc2ccccc12 | -5.36% |
| CNC(=O)c1cccc(N2CCCC2=O)c1 | 14.7% |
| CCCCn1c(=O)c(CCC(=O)OC(C)C(=O)Nc2cccc(Cl)c2Cl)nc2ccccc21 (centres unmarked) | -6.94% |
| O=C(NNC(=O)c1ccc(S(=O)(=O)N2CCOCC2)cc1)c1ccccc1 | 17.5% |
| CCC(=O)c1cc(-c2nc3ccccc3n2C)n(C)c1 | -2.09% |

Reference: PMC4336329 (PLoS ONE, 2015)
